# From the supplement of paper PMC8728848
# The other results are listed elsewhere or left out.
# B1: CBM13 2a (Mycobacterium tuberculosum), P64849 (protein)
# chain: DGPVQLKSRLGDVCLDAPSGSWFSPLVINPCNGTDFQRWNLTDDRQVESVAFPGECVNIGNALWARLQPCVNWISQHWTVQPDGLVKSDLDACLTVLGGPDPGTWVSTRWCDPNAPDQQWDSVPLEHHHHHH
# Experiments:
# Assay in all cases: glycan array binding signal (z-score within array); higher = stronger binding
# Conditions in all cases: glycan notation: IUPAC condensed, linker removed
# [1] = target: Fuc(a1-2)Gal(b1-4)GlcNAc(b1-3)Gal(b1-4)GlcNAc(b1-2)Man(a1-3)[Fuc(a1-2)Gal(b1-4)GlcNAc(b1-3)Gal(b1-4)GlcNAc(b1-2)Man(a1-6)]Man(b1-4)GlcNAc(b1-4)GlcNAc
# Outline: (§1)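 The Consortium for Functional Glycomics database supplied 3228 glycan arrays, of which those lacking an available protein sequence were dropped. The binding signal, a within-array Z-score, was averaged across arrays of the same protein sequence and across linkers. Negative scores can be read as non-binding.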
# [2] = target: Fuc(a1-2)Gal(b1-4)GlcNAc(b1-3)Gal(b1-4)GlcNAc(b1-3)Gal(b1-4)GlcNAc
# Outline: as §1
# [3] = target: Fuc(a1-2)Gal(b1-4)GlcNAc(b1-3)GalNAc
# Outline: as §1
# [4] = target: Fuc(a1-2)Gal(b1-4)GlcNAc(b1-3)[Fuc(a1-2)Gal(b1-4)GlcNAc(b1-6)]GalNAc
# Outline: as §1
# [5] = target: Fuc(a1-2)Gal(b1-4)GlcNAc(b1-3)[Fuc(a1-3)[Gal(b1-4)]GlcNAc(b1-6)]Gal(b1-4)Glc
# Outline: as §1
# [6] = target: Fuc(a1-2)Gal(b1-4)GlcNAc(b1-6)GalNAc
# Outline: as §1
# [7] = target: Fuc(a1-2)Gal(b1-4)GlcNAc6S
# Outline: as §1
# [8] = target: Fuc(a1-2)Gal(b1-4)[Fuc(a1-3)]GlcNAc
# Outline: as §1
# [9] = target: Fuc(a1-2)Gal(b1-4)[Fuc(a1-3)]GlcNAc(b1-2)Man(a1-3)[Fuc(a1-2)Gal(b1-4)[Fuc(a1-3)]GlcNAc(b1-2)Man(a1-6)]Man(b1-4)GlcNAc(b1-4)[Fuc(a1-6)]GlcNAc
# Outline: as §1
# [10] = target: Fuc(a1-2)Gal(b1-4)[Fuc(a1-3)]GlcNAc(b1-2)[Fuc(a1-2)Gal(b1-4)[Fuc(a1-3)]GlcNAc(b1-4)]Man(a1-3)[Fuc(a1-2)Gal(b1-4)[Fuc(a1-3)]GlcNAc(b1-2)Man(a1-6)]Man(b1-4)GlcNAc(b1-4)GlcNAc
# Outline: as §1
# [11] = target: Fuc(a1-2)Gal(b1-4)[Fuc(a1-3)]GlcNAc(b1-3)Gal(b1-4)[Fuc(a1-3)]GlcNAc
# Outline: as §1
# [12] = target: Fuc(a1-2)Gal(b1-4)[Fuc(a1-3)]GlcNAc(b1-3)Gal(b1-4)[Fuc(a1-3)]GlcNAc(b1-3)Gal(b1-4)[Fuc(a1-3)]GlcNAc
# Outline: as §1
# [13] = target: Fuc(a1-2)Gal(b1-4)[Fuc(a1-3)]GlcNAc(b1-3)GalNAc
# Outline: as §1
# [14] = target: Fuc(a1-2)Gal(b1-4)[Fuc(a1-3)]GlcNAc(b1-3)[Neu5Ac(a2-6)Gal(b1-4)GlcNAc(b1-6)]Gal(b1-4)Glc
# Outline: as §1
# [15] = target: Fuc(a1-2)Gal3S(b1-4)GlcNAc
# Outline: as §1
# [16] = target: Fuc(a1-2)Gal6S(b1-3)GlcNAc
# Outline: as §1
# [17] = target: Fuc(a1-2)Gal6S(b1-3)GlcNAc6S
# Outline: as §1
# Fuc(a1-2)Gal6S(b1-4)Glc = target: Fuc(a1-2)Gal6S(b1-4)Glc
# Outline: as §1
# [18] = target: Fuc(a1-2)Gal6S(b1-4)Glc6S
# Outline: as §1
# Fuc(a1-2)[Gal(a1-3)]Gal = target: Fuc(a1-2)[Gal(a1-3)]Gal
# Outline: as §1
# [19] = target: Fuc(a1-2)[Gal(a1-3)]Gal(b1-3)GalNAc
# Outline: as §1
# [20] = target: Fuc(a1-2)[Gal(a1-3)]Gal(b1-3)GalNAc(b1-3)Gal(a1-4)Gal(b1-4)Glc
# Outline: as §1
# [21] = target: Fuc(a1-2)[Gal(a1-3)]Gal(b1-3)GlcNAc
# Outline: as §1
# [22] = target: Fuc(a1-2)[Gal(a1-3)]Gal(b1-3)GlcNAc(b1-2)Man(a1-3)[Fuc(a1-2)[Gal(a1-3)]Gal(b1-3)GlcNAc(b1-2)Man(a1-6)]Man(b1-4)GlcNAc(b1-4)GlcNAc
# Outline: as §1
# [23] = target: Fuc(a1-2)[Gal(a1-3)]Gal(b1-3)GlcNAc(b1-2)Man(a1-3)[Fuc(a1-2)[Gal(a1-3)]Gal(b1-3)GlcNAc(b1-2)Man(a1-6)]Man(b1-4)GlcNAc(b1-4)[Fuc(a1-6)]GlcNAc
# Outline: as §1
# [24] = target: Fuc(a1-2)[Gal(a1-3)]Gal(b1-3)GlcNAc(b1-3)GalNAc
# Outline: as §1
# [25] = target: Fuc(a1-2)[Gal(a1-3)]Gal(b1-3)GlcNAc(b1-6)GalNAc
# Outline: as §1
# [26] = target: Fuc(a1-2)[Gal(a1-3)]Gal(b1-4)Glc
# Outline: as §1
# [27] = target: Fuc(a1-2)[Gal(a1-3)]Gal(b1-4)GlcNAc
# Outline: as §1
# [28] = target: Fuc(a1-2)[Gal(a1-3)]Gal(b1-4)GlcNAc(b1-2)Man
# Outline: as §1
# [29] = target: Fuc(a1-2)[Gal(a1-3)]Gal(b1-4)GlcNAc(b1-2)Man(a1-3)[Fuc(a1-2)[Gal(a1-3)]Gal(b1-4)GlcNAc(b1-2)Man(a1-6)]Man(b1-4)GlcNAc(b1-4)GlcNAc
# Outline: as §1
# [30] = target: Fuc(a1-2)[Gal(a1-3)]Gal(b1-4)GlcNAc(b1-2)Man(a1-3)[Fuc(a1-2)[Gal(a1-3)]Gal(b1-4)GlcNAc(b1-2)Man(a1-6)]Man(b1-4)GlcNAc(b1-4)[Fuc(a1-6)]GlcNAc
# Outline: as §1
# [31] = target: Fuc(a1-2)[Gal(a1-3)]Gal(b1-4)GlcNAc(b1-3)GalNAc
# Outline: as §1
# [32] = target: Fuc(a1-2)[Gal(a1-3)]Gal(b1-4)GlcNAc(b1-6)GalNAc
# Outline: as §1
# [33] = target: Fuc(a1-2)[Gal(a1-3)]Gal(b1-4)[Fuc(a1-3)]Glc
# Outline: as §1
# [34] = target: Fuc(a1-2)[Gal(a1-3)]Gal(b1-4)[Fuc(a1-3)]GlcNAc
# Outline: as §1
# [35] = target: Fuc(a1-2)[Gal(a1-3)]Gal(b1-4)[Fuc(a1-3)]GlcNAc(b1-3)GalNAc
# Outline: as §1
# [36] = target: Fuc(a1-2)[Gal(a1-4)]Gal(b1-4)GlcNAc
# Outline: as §1
# [37] = target: Fuc(a1-2)[GalNAc(a1-3)]Gal
# Outline: as §1
# [38] = target: Fuc(a1-2)[GalNAc(a1-3)]Gal(b1-3)GalNAc(a1-3)[Fuc(a1-2)]Gal(b1-4)GlcNAc
# Outline: as §1
# [39] = target: Fuc(a1-2)[GalNAc(a1-3)]Gal(b1-3)GalNAc(b1-3)Gal(a1-4)Gal(b1-4)Glc
# Outline: as §1
# [40] = target: Fuc(a1-2)[GalNAc(a1-3)]Gal(b1-3)GlcNAc
# Outline: as §1
# [41] = target: Fuc(a1-2)[GalNAc(a1-3)]Gal(b1-3)GlcNAc(b1-2)Man(a1-3)[Fuc(a1-2)[GalNAc(a1-3)]Gal(b1-3)GlcNAc(b1-2)Man(a1-6)]Man(b1-4)GlcNAc(b1-4)GlcNAc
# Outline: as §1
# [42] = target: Fuc(a1-2)[GalNAc(a1-3)]Gal(b1-3)GlcNAc(b1-2)Man(a1-3)[Fuc(a1-2)[GalNAc(a1-3)]Gal(b1-3)GlcNAc(b1-2)Man(a1-6)]Man(b1-4)GlcNAc(b1-4)[Fuc(a1-6)]GlcNAc
# Outline: as §1
# [43] = target: Fuc(a1-2)[GalNAc(a1-3)]Gal(b1-3)GlcNAc(b1-3)GalNAc
# Outline: as §1
binder,measurement,setting,value
B1,glycan array binding signal (z-score),[1],-0.177
same,glycan array binding signal (z-score),[2],-0.322
same,glycan array binding signal (z-score),[3],-0.25
same,glycan array binding signal (z-score),[4],-0.061
same,glycan array binding signal (z-score),[5],-0.206
same,glycan array binding signal (z-score),[6],-0.181
same,glycan array binding signal (z-score),[7],-0.257
same,glycan array binding signal (z-score),[8],-0.253
same,glycan array binding signal (z-score),[9],0.006
same,glycan array binding signal (z-score),[10],-0.215
same,glycan array binding signal (z-score),[11],-0.108
same,glycan array binding signal (z-score),[12],-0.112
same,glycan array binding signal (z-score),[13],0.032
same,glycan array binding signal (z-score),[14],-0.018
same,glycan array binding signal (z-score),[15],-0.228
same,glycan array binding signal (z-score),[16],-0.322
same,glycan array binding signal (z-score),[17],1.06
same,glycan array binding signal (z-score),Fuc(a1-2)Gal6S(b1-4)Glc,-0.248
same,glycan array binding signal (z-score),[18],-0.174
same,glycan array binding signal (z-score),Fuc(a1-2)[Gal(a1-3)]Gal,-0.26
same,glycan array binding signal (z-score),[19],-0.268
same,glycan array binding signal (z-score),[20],-0.311
same,glycan array binding signal (z-score),[21],0.37
same,glycan array binding signal (z-score),[22],-0.307
same,glycan array binding signal (z-score),[23],-0.196
same,glycan array binding signal (z-score),[24],-0.142
same,glycan array binding signal (z-score),[25],-0.198
same,glycan array binding signal (z-score),[26],-0.34
same,glycan array binding signal (z-score),[27],-0.021
same,glycan array binding signal (z-score),[28],-0.294
same,glycan array binding signal (z-score),[29],-0.34
same,glycan array binding signal (z-score),[30],-0.171
same,glycan array binding signal (z-score),[31],-0.12
same,glycan array binding signal (z-score),[32],-0.006
same,glycan array binding signal (z-score),[33],-0.083
same,glycan array binding signal (z-score),[34],0.03
same,glycan array binding signal (z-score),[35],-0.176
same,glycan array binding signal (z-score),[36],-0.387
same,glycan array binding signal (z-score),[37],-0.273
same,glycan array binding signal (z-score),[38],-0.25
same,glycan array binding signal (z-score),[39],-0.359
same,glycan array binding signal (z-score),[40],-0.251
same,glycan array binding signal (z-score),[41],-0.161
same,glycan array binding signal (z-score),[42],0.016
same,glycan array binding signal (z-score),[43],-0.274
